# About 64,000 (15%) of roughly 420,000 compounds were called active. Inconclusive means that the source gave no clear call. Such entries were picked first, then a sample of the others. Calls come from the whole dose curve; as a rule, active = well fitted inhibition curve with a large enough effect; inconclusive = small, poorly fitted or top-dose-only effect; inactive = flat fitted curve, though single readings scatter. Potencies of inconclusive entries are left out as doubtful fits.
# Assay: qHTS for Inhibitors of human tyrosyl-DNA phosphodiesterase 1 (TDP1): qHTS in cells in absence of CPT; note: nearly all actives have a fitted effect of over 55% in size
# Conditions: DT40 Tdp1-/- hTDP1 cells, no CPT, ATP luminescence, 48 h; activity change, negative = growth inhibition: at 46.2 µM (top of the series) unless noted
# Outline: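 Seeded 400 DT40-hTDP1 cells/well (vehicle DMSO, no 20 nM CPT); pinned compounds; ≥48 hr at 37 °C; CellTiter-Glo luminescence as viability measure.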
# % is set by controls: 0 for no effect and ±100 for the full control effect; potency is the fitted concentration of half-maximal effect; tags give direction and shape of the fitted curve.
Compound,Potency,"activity change, negative = growth inhibition"
CCOc1ccc(-c2noc([C@@H]3O[C@H](CO)[C@@H](O)[C@H]3O)n2)cc1,"inconclusive [inhibitor, partial curve]",
Cc1nc(-c2cccc(NC(=O)COc3ccc(Cl)cc3)c2)cs1,"inconclusive [inhibitor, single point]",
O=C(NCC1CCCO1)c1ccc(CSCc2cccc(F)c2)o1 (stereo not given),"inconclusive [inhibitor, single point]",
O=C(NNC(=O)C1CCN(S(=O)(=O)c2cccc(Cl)c2)CC1)C1CC1,,inactive: 24.9%
Cc1ccc(S(=O)(=O)N2CCOCC2)cc1NC(=O)CNc1ccccc1N1CCCC1=O,,inactive: -7.86%
O=C(COc1ccc(Cl)cc1)Nc1ccc2c(c1)CCC2,"inconclusive [inhibitor, single point]",
CC1(C)CC(=O)C(C=NCc2ccccn2)=C(O)C1,,inactive: -2.21%
Cc1ccc(C)c(NC(=O)C(C)CC2COCCO2)c1 (stereo not given),,inactive: -3.97%
Cc1ccc2nc(NC(=S)NC(=O)c3ccco3)sc2c1,active: 3.26 µM,
COc1ccc(-c2nnc(C3CCN(S(=O)(=O)c4ccccc4)CC3)o2)cc1,"inconclusive [inhibitor, single point]",
O=C(CCCn1c(=S)[nH]c2cc3c(cc2c1=O)OCO3)NCc1ccccc1Cl,,inactive: 18%
O=C(NCCC1CCCCN1S(=O)(=O)c1ccc(Cl)cc1)C(=O)NCc1ccco1 (stereo not given),active: 14.6 µM,
CC(=O)Nc1ccc(S(=O)(=O)NCC2CCC(C(=O)N3CCCCCC3)CC2)cc1 (stereo not given),"inconclusive [inhibitor, partial curve]",
CCOC(=O)c1cnn(-c2nc(-c3ccccc3)cs2)c1C(F)(F)F,,inactive: -5.72%
O=c1oc2ccccc2cc1-c1csc(Cc2nc(-c3ccc(Cl)cc3)cs2)n1,active: 25.9 µM,
CC(C)c1ccc(CNNC(=O)c2ccccc2)cc1,"inconclusive [inhibitor, partial curve, poor fit]",
COC(=O)c1c(-c2ccc(Cl)cc2)noc1N1CCN(c2cccc(C)c2C)CC1,"inconclusive [inhibitor, partial curve, poor fit]",
Cc1ccc(OCC(=O)NNC(=S)NC(=O)C(C)(C)C)c(Br)c1,active: 18.4 µM,
COC(=O)c1ccccc1NC(=O)NCCc1ccc(OC)c(OC)c1,"inconclusive [inhibitor, single point]",
COc1ccc2c(c1)C(c1ccc(C)o1)=NNC(c1ccccc1)=N2,"inconclusive [inhibitor, single point]",
O=C(Cn1nnc2ccccc2c1=O)N[C@@H](Cc1ccccc1)C(=O)O,,inactive: 18.5%
COc1ccc(-n2c(O)c(C=Nc3ccccc3)c3ccccc3c2=O)cc1OC,"inconclusive [inhibitor, single point]",
C=CCn1c(-c2sc3nc(C)cc(C)c3c2N)n[nH]c1=S,"inconclusive [inhibitor, full curve]",

Compound,Potency,"activity change, negative = growth inhibition"
CCCN(CC1CC1)C(=O)CCc1nnc(CCc2c[nH]c3ccccc23)o1,"inconclusive [inhibitor, single point]",
O=C(Nc1nccs1)c1cccc(NC(=O)C2CC2)c1,"inconclusive [inhibitor, partial curve, poor fit]",
CCOc1ccc(-c2n[nH]c(C)c2-c2ccccc2OC)c(O)c1,"inconclusive [inhibitor, single point]",
CN(Cc1c(F)cccc1Cl)S(=O)(=O)c1cccs1,,inactive: -16%
COCCNC(=S)NN=C1CCCCC1,active: 5.17 µM,
CCCc1cc(CN(C)C(=O)c2ccc(OC3CCN(C(C)=O)CC3)c(OC)c2)[nH]n1,,inactive: -4.19%
COc1ccc(S(=O)(=O)NC2CC2)cc1C(=O)N1CCOCC1,"inconclusive [inhibitor, single point]",
CCc1cnc2c(c1SCC(=O)Nc1ccc(OC)c(OC)c1)c(=O)n(C)c(=O)n2C,"inconclusive [inhibitor, single point]",
Clc1ccc(N=c2ssnc2Cl)cc1,active: 14.6 µM,
Cc1cc(C)c(C#N)c(OCc2ccc(Cl)nc2)n1,,inactive: -16.5%
COc1ccc(CN(C)CC(O)COc2ccc(C(=O)c3ccccc3)cc2)c(OC)c1OC (stereo not given),active: 16.4 µM,
CC1(C)C(c2ccco2)=[N+]([O-])C2(CCCCC2=O)N1O (stereo not given),,inactive: 10.1%
CCCc1cc(=O)[nH]c(SCC(=O)N2N=C(c3ccc(Cl)cc3)CC2c2ccco2)n1 (stereo not given),"inconclusive [inhibitor, single point]",
CCCC1=Nc2cc(C(=O)NCC(C)c3ccccc3)ccc2Sc2ccccc21 (stereo not given),"inconclusive [inhibitor, single point]",
O=C(COC(=O)CCCN1C(=O)c2cccc3cccc(c23)C1=O)NC1CCS(=O)(=O)C1 (stereo not given),"inconclusive [inhibitor, single point]",
Nc1cc(S(=O)(=O)N2CCOCC2)ccc1N1CCCCC1,"inconclusive [inhibitor, single point]",
O=C(Cc1ccc(Cl)cc1)NC(=S)Nc1ccccc1N1CCOCC1,"inconclusive [inhibitor, single point]",
Cc1nc2c3ccccc3n(Cc3ccccc3F)c2s1,"inconclusive [inhibitor, single point]",
COc1ccc(COC(=O)c2ccc(Br)c(S(=O)(=O)N3CCOCC3)c2)cc1F,"inconclusive [inhibitor, partial curve]",
COc1ccc2ccc(O)c(CN3CCN(S(=O)(=O)c4cc([N+](=O)[O-])ccc4C)CC3)c2c1,"inconclusive [inhibitor, single point]",
CCOC(=O)N1CCN(c2nc3ccc(C(=O)c4ccccc4)cc3n3cnnc23)CC1,"inconclusive [inhibitor, single point]",
CCOCCCNS(=O)(=O)c1ccc(NC(=O)N2c3ccccc3Sc3ccccc32)cc1,"inconclusive [inhibitor, single point]",

# Source: PubChem BioAssay AID686978 (National Center for Advancing Translational Sciences (NCATS), 2013)
